Experimental data as given in the supplement of paper PMC3334620.
In all, about 33,000 sequences were measured (“E-score (-0.5 to 0.5)”: median about -0.01, highest 2% from about 0.26 on). The list shows a part of the results.

What follows are sequences tested against Ste12 (UniProt P13574) (assay: PBM E-score (8-mer binding enrichment) (E-score (-0.5 to 0.5)); higher = stronger / more preferred TF binding; most listed sequences are background and not binding sites). Details: protein concentration: 200 nM; construct: GST-DNA-binding domain.
Summary of the method: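 GST-tagged yeast TFs (full-length or DNA-binding domain) were made by PURExpress in vitro transcription/translation and applied at about 100-200 nM to universal all-10-mer Agilent arrays. The arrays were made double-stranded by primer extension, on fresh or once-stripped slides. Bound protein was detected with fluorescent anti-GST, and scans were normalised with masliner. Each ungapped eight-base word, pooled with its reverse complement, received an E-score (modified Wilcoxon-Mann-Whitney statistic) from the Universal PBM Analysis Suite.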
AACATTCG was tested, and the “PBM E-score” value was 0.0163.
For AATTACCG, the “PBM E-score” value was 0.175.
GTTCAGAA was tested, and the “PBM E-score” value was -0.0378.
In the case of AGCAAGAT, the “PBM E-score” value is reported as 0.0955.
With AACGGGTC the “PBM E-score” value was -0.133.
CTCCCTTC was tested, and the “PBM E-score” value was -0.243.
For CTCTTGAC, the “PBM E-score” value was -0.0383.
In the case of GTTTTGTA, the “PBM E-score” value is reported as 0.177.
For GACGCGAC, the “PBM E-score” value was -0.101.
For ACCCGACT, the “PBM E-score” value was 0.118.
For GCGAATCC, the “PBM E-score” value was -0.2.
In the case of AAGCCGAG, the “PBM E-score” value is reported as -0.0256.
In the case of ACGAGAGG, the “PBM E-score” value is reported as -0.0229.
TACTTCTA was tested, and the “PBM E-score” value was -0.043.
AATACAGA was tested, and the “PBM E-score” value was -0.0373.
CGTACATA was tested, and the “PBM E-score” value was -0.0333.
GGCTGACA was tested, and the “PBM E-score” value was -0.0506.
CATTCGGC was tested, and the “PBM E-score” value was 0.0357.
AGCGGTCA was tested, and the “PBM E-score” value was 0.0199.
TCTATTCA was tested, and the “PBM E-score” value was 0.128.
CACCACTG was tested, and the “PBM E-score” value was -0.124.
For ATCGACGA, the “PBM E-score” value was -0.274.
In the case of CCGACTAC, the “PBM E-score” value is reported as -0.0266.
In the case of CAGGTCCA, the “PBM E-score” value is reported as -0.0704.
In the case of CTTGCGCC, the “PBM E-score” value is reported as -0.0959.
For ACGAAGCG, the “PBM E-score” value was -0.00271.
In the case of GGTAGACC, the “PBM E-score” value is reported as -0.234.
In the case of GTGACCGA, the “PBM E-score” value is reported as -0.0479.
In the case of GACCGACC, the “PBM E-score” value is reported as -0.0593.
With CAAAGTGG the “PBM E-score” value was -0.131.
In the case of AGTACGTA, the “PBM E-score” value is reported as -0.141.
In the case of GTTCGTGA, the “PBM E-score” value is reported as -0.141.
For AAGAGGCC, the “PBM E-score” value was -0.0915.
For AGCGCCCT, the “PBM E-score” value was -0.0523.
For CAAACGAG, the “PBM E-score” value was 0.0954.
ATATTGAA was tested, and the “PBM E-score” value was 0.223.
In the case of AATCATAG, the “PBM E-score” value is reported as 0.177.
With CAACAGCA the “PBM E-score” value was 0.021.
In the case of ACCTTCGC, the “PBM E-score” value is reported as -0.0766.
CAGCGGAG was tested, and the “PBM E-score” value was -0.0485.
In the case of GACCGGAC, the “PBM E-score” value is reported as -0.156.
With CTCTAATC the “PBM E-score” value was 0.0231.
CACGAGTC was tested, and the “PBM E-score” value was -0.134.
ATTCTTTG was tested, and the “PBM E-score” value was 0.218.
For ATTAAGGA, the “PBM E-score” value was 0.0696.
With AGCTGCGA the “PBM E-score” value was -0.0245.
With GCCATTCA the “PBM E-score” value was 0.0323.
For GCTGATGA, the “PBM E-score” value was 0.126.
In the case of CCAGGGAC, the “PBM E-score” value is reported as -0.203.
With ATGTCTTC the “PBM E-score” value was -0.188.
With ACCCAAAC the “PBM E-score” value was 0.285.
ATCCCCAC was tested, and the “PBM E-score” value was 0.184.
CTAGTGAA was tested, and the “PBM E-score” value was 0.0857.
With AACCGTGA the “PBM E-score” value was -0.167.
For ACACACGC, the “PBM E-score” value was 0.107.
With CGCCAAGC the “PBM E-score” value was -0.0963.
For ACCTCGCA, the “PBM E-score” value was 0.0132.
With AACAGCAA the “PBM E-score” value was 0.11.
With AAGGAGTG the “PBM E-score” value was 0.0148.
In the case of ATGTACCG, the “PBM E-score” value is reported as 0.0747.
In the case of ACCAATAT, the “PBM E-score” value is reported as 0.163.
With CAGACTAA the “PBM E-score” value was 0.0635.
In the case of CGGCTCTA, the “PBM E-score” value is reported as 0.012.
With AGTACGCA the “PBM E-score” value was -0.183.
AAGAGACG was tested, and the “PBM E-score” value was 0.0312.
In the case of CTCAGAAA, the “PBM E-score” value is reported as 0.122.
CTTACCCC was tested, and the “PBM E-score” value was 0.0457.
With ACTTGTTG the “PBM E-score” value was -0.16.
With AGGTCTTA the “PBM E-score” value was -0.101.
For ATGTAAAG, the “PBM E-score” value was 0.0258.
For CAGCATAG, the “PBM E-score” value was -0.0347.
For CAGAGTCG, the “PBM E-score” value was -0.0225.
CGCCATAG was tested, and the “PBM E-score” value was -0.0565.
In the case of ATAGCACC, the “PBM E-score” value is reported as -0.16.
With CGGCCATA the “PBM E-score” value was -0.116.
With ACGCAATG the “PBM E-score” value was -0.0869.
With CTCGGCGC the “PBM E-score” value was 0.242.
With CACGGTGA the “PBM E-score” value was -0.107.
For GAGACCTC, the “PBM E-score” value was -0.0791.
For CGCGGGGA, the “PBM E-score” value was 0.333.
With ACCCGTAA the “PBM E-score” value was -0.0722.
With CCCTCGAC the “PBM E-score” value was -0.118.
AATACTAT was tested, and the “PBM E-score” value was 0.0118.
For GTCATTCA, the “PBM E-score” value was 0.0289.
With GCAAAACA the “PBM E-score” value was 0.154.
With GTACGTAC the “PBM E-score” value was -0.194.
With GAGCCTTA the “PBM E-score” value was -0.047.
In the case of GACTTGGC, the “PBM E-score” value is reported as -0.148.
ATGACAAG was tested, and the “PBM E-score” value was -0.0485.
For CGTCGGCC, the “PBM E-score” value was -0.127.
With CATGACGC the “PBM E-score” value was -0.0125.
ACTTCTGC was tested, and the “PBM E-score” value was -0.143.
ATTATGGG was tested, and the “PBM E-score” value was 0.121.
In the case of GTCTGCTA, the “PBM E-score” value is reported as -0.171.
For CCCCCTCG, the “PBM E-score” value was -0.191.
CAAGACCA was tested, and the “PBM E-score” value was -0.113.
ATAGAATA was tested, and the “PBM E-score” value was 0.123.
With AAGGAGGC the “PBM E-score” value was -0.237.
With AGAGATAC the “PBM E-score” value was -0.0146.
For AGGGTGTC, the “PBM E-score” value was -0.0908.
With CAGGAGAG the “PBM E-score” value was -0.0564.
CCAAGAGG was tested, and the “PBM E-score” value was -0.25.
AGAGCAAA was tested, and the “PBM E-score” value was 0.14.
In the case of CTGCAACA, the “PBM E-score” value is reported as 0.149.
With CCTGTGTA the “PBM E-score” value was -0.124.
In the case of ATCTATCA, the “PBM E-score” value is reported as 0.172.
In the case of AAGATATA, the “PBM E-score” value is reported as 0.199.
ATCATACC was tested, and the “PBM E-score” value was 0.128.
In the case of GAAGGCGA, the “PBM E-score” value is reported as -0.16.
In the case of GACATGTC, the “PBM E-score” value is reported as -0.268.
With ACCCGGAC the “PBM E-score” value was -0.0992.
For AAAAAACA, the “PBM E-score” value was 0.331.
ATTATCTA was tested, and the “PBM E-score” value was 0.0945.
GTTATGCA was tested, and the “PBM E-score” value was -0.0887.
In the case of GGCTACCC, the “PBM E-score” value is reported as -0.285.
In the case of GGATCCGA, the “PBM E-score” value is reported as -0.195.
AAGAAACG was tested, and the “PBM E-score” value was 0.148.
For TCAGTCGA, the “PBM E-score” value was -0.0156.
CCTGAGAA was tested, and the “PBM E-score” value was -0.0164.
With CCCGTGTA the “PBM E-score” value was -0.121.
CAGAGCGG was tested, and the “PBM E-score” value was -0.0476.
In the case of CCTGCCTA, the “PBM E-score” value is reported as -0.18.
In the case of AGTTGTTG, the “PBM E-score” value is reported as -0.0162.
For ATATACTA, the “PBM E-score” value was 0.191.
ACCTCATC was tested, and the “PBM E-score” value was -0.0717.
With CGGGCTTA the “PBM E-score” value was 0.0808.
In the case of CGGACCCG, the “PBM E-score” value is reported as 0.0446.
For CTACCATC, the “PBM E-score” value was -0.179.
In the case of AGAGCTTA, the “PBM E-score” value is reported as -0.0314.
ATCTCATA was tested, and the “PBM E-score” value was -0.00101.
CCCGGAAC was tested, and the “PBM E-score” value was 0.0442.
With AACTGTAA the “PBM E-score” value was 0.328.
GAGGCCGC was tested, and the “PBM E-score” value was -0.275.
With GCTGCACC the “PBM E-score” value was -0.116.
For CGCATTAC, the “PBM E-score” value was -0.0621.
CGTTCGGC was tested, and the “PBM E-score” value was -0.156.
In the case of AGTATATC, the “PBM E-score” value is reported as -0.0122.
With ATGTAGGA the “PBM E-score” value was -0.118.
For CGGTTTTC, the “PBM E-score” value was 0.166.
For ATCGACAT, the “PBM E-score” value was -0.032.
CGTAACTA was tested, and the “PBM E-score” value was 0.0585.
AAAAGAGC was tested, and the “PBM E-score” value was 0.0721.
In the case of ACGTCACC, the “PBM E-score” value is reported as 0.00053.
CGATAATC was tested, and the “PBM E-score” value was -0.151.
GACCGTAC was tested, and the “PBM E-score” value was -0.186.
CACTGAAA was tested, and the “PBM E-score” value was 0.322.
In the case of ATGTCCAC, the “PBM E-score” value is reported as -0.0375.
For ATCCTATA, the “PBM E-score” value was 0.0688.
GTGGGACA was tested, and the “PBM E-score” value was 0.104.
In the case of CAAGTCCC, the “PBM E-score” value is reported as -0.148.
For CTAGGCCC, the “PBM E-score” value was -0.112.
With AGTCGCTA the “PBM E-score” value was -0.185.
In the case of CATAGCCA, the “PBM E-score” value is reported as -0.179.
With AGCGGGTG the “PBM E-score” value was -0.0779.
In the case of GATTACAC, the “PBM E-score” value is reported as -0.0534.
For GCAAGGGA, the “PBM E-score” value was -0.0936.
For ACCTTCAC, the “PBM E-score” value was 0.134.
For ATATTATC, the “PBM E-score” value was 0.181.
For CGAGCCAA, the “PBM E-score” value was -0.0499.
For CCACGGAC, the “PBM E-score” value was -0.0718.
For AGCGAGCA, the “PBM E-score” value was -0.125.
In the case of GTCGCCTA, the “PBM E-score” value is reported as -0.171.
In the case of AGGTATTC, the “PBM E-score” value is reported as -0.0299.
In the case of ACGCGGGC, the “PBM E-score” value is reported as 0.067.
In the case of AATACGCA, the “PBM E-score” value is reported as 0.0688.
For ACACCAGG, the “PBM E-score” value was -0.154.
For AAATCAAC, the “PBM E-score” value was 0.186.
CTCGCTCC was tested, and the “PBM E-score” value was 0.0967.
In the case of ACAACAAA, the “PBM E-score” value is reported as 0.152.
CCTCGGCA was tested, and the “PBM E-score” value was 0.0665.
For CTCTGGAA, the “PBM E-score” value was -0.121.
In the case of ACTACTTA, the “PBM E-score” value is reported as 0.0589.
